Measurements from patent US10407421B2, “Bicyclic aryl monobactam compounds and methods of use thereof for the treatment of bacterial infections” (priority 2016, dated 2019).
Structures can show the parent of a compound that is named as a salt. The name of at least one read-out is uncertain.

Legend:
Format in all cases: cell-based
Conditions in all cases: in the presence of β lactamase inhibitor Relebactam 4 μg/mL, 22 hours at 35±2° C., lowest concentration inhibiting 95% of growth (OD600)
[1] = test system: Acinetobacter baumannii expressing TEM-1, AmpC, and Oxa-24/40 (CL6188); test: Growth inhibitory concentration (OD600), Acinetobacter baumannii CL6188
[2] = test system: Escherichia coli expressing NDM-1 (CLB30016); test: Growth inhibitory concentration (OD600), Escherichia coli CLB30016
[3] = test system: Klebsiella pneumoniae expressing KPC-1 (CL6569); test: Growth inhibitory concentration (OD600), Klebsiella pneumoniae CL6569
[4] = test system: Pseudomonas aeruginosa expressing AmpC (CL5701); test: Growth inhibitory concentration (OD600), Pseudomonas aeruginosa CL5701

Row | Structure (SMILES) | AB_CL6188 MITC95 [1] | EC_CLB30016 MITC95 [2] | KP_CL6569 MITC95 [3] | PA_CL5701 MITC95 [4] | AB_CL6188 MITC95 ([1]; 2,2,2-trifluoroacetate) | EC_CLB30016 MITC95 ([2]; 2,2,2-trifluoroacetate) | KP_CL6569 MITC95 ([3]; 2,2,2-trifluoroacetate) | PA_CL5701 MITC95 ([4]; 2,2,2-trifluoroacetate)
1 | C[n+]1c(CC2CNC2)cn2cc(OC[C@@H](O/N=C(\C(=O)N[C@@H]3C(=O)N(OS(=O)(=O)O)C3(C)C)c3csc(N)n3)C(=O)O)ccc21 [Example 40, 6-((R)-2-((((Z)-1-(2-aminothiazol-4-yl)-2-(((S)-2,2-dimethyl-4-oxo-1-(sulfooxy)azetidin-3-yl)amino)-2-oxoethylidene)amino)oxy)-2-carboxyethoxy)-2-(azetidin-3-ylmethyl)-1-methylimidazo[1,2-a]pyridin-1-ium 2,2,2-trifluoroacetate] | 25 µM | 100 µM | 12.5 µM | 100 µM |  |  |  | 
2 | CC1(C)[C@H](NC(=O)/C(=N\O[C@@H](COc2ccc3nc(SCCCN)[nH]c3c2)C(=O)O)c2csc(N)n2)C(=O)N1OS(=O)(=O)O [Example 41, 3-((6-((S)-2-((((Z)-1-(2-aminothiazol-4-yl)-2-(((S)-2,2-dimethyl-4-oxo-1-(sulfooxy)azetidin-3-yl)amino)-2-oxoethylidene)amino)oxy)-2-carboxyethoxy)-1H-benzo[d]imidazol-2-yl)thio)propan-1-aminium 2,2,2-trifluoroacetate] | 25 µM | 12.5 µM | 0.78 µM | 6.2 µM |  |  |  | 
3 | CC1(C)[C@H](NC(=O)/C(=N\O[C@H](COc2ccc3nc(SCCCN)[nH]c3c2)C(=O)O)c2csc(N)n2)C(=O)N1OS(=O)(=O)O [Example 42, 3-((6-((R)-2-((((Z)-1-(2-aminothiazol-4-yl)-2-(((S)-2,2-dimethyl-4-oxo-1-(sulfooxy)azetidin-3-yl)amino)-2-oxoethylidene)amino)oxy)-2-carboxyethoxy)-1H-benzo[d]imidazol-2-yl)thio)propan-1-aminium 2,2,2-trifluoroacetate] | 100 µM | 100 µM | 12.5 µM | 25 µM |  |  |  | 
4 | CC1(C)[C@H](NC(=O)/C(=N\O[C@@H](COc2ccc3nc(NC4CNC4)sc3c2)C(=O)O)c2csc(N)n2)C(=O)N1OS(=O)(=O)O.O=C(O)C(F)(F)F [Example 43, 3-((6-((S)-2-((((Z)-1-(2-aminothiazol-4-yl)-2-(((S)-2,2-dimethyl-4-oxo-1-(sulfooxy)azetidin-3-yl)amino)-2-oxoethylidene)amino)oxy)-2-carboxyethoxy)benzo[d]thiazol-2-yl)amino)azetidin-1-ium 2,2,2-trifluoroacetate] | 12.5 µM | 6.2 µM | 0.39 µM | 6.2 µM |  |  |  | 
5 | C[C@H]1[C@H](NC(=O)/C(=N\O[C@@H](COc2ccc3nc(NC4CNC4)sc3c2)C(=O)O)c2csc(N)n2)C(=O)N1S(=O)(=O)O [Example 44, 3-((6-((S)-2-((((Z)-1-(2-aminothiazol-4-yl)-2-(((2S,3S)-2-methyl-4-oxo-1-sulfoazetidin-3-yl)amino)-2-oxoethylidene)amino)oxy)-2-carboxyethoxy)benzo[d]thiazol-2-yl)amino)azetidin-1-ium 2,2,2-trifluoroacetate] | 25 µM | 12.5 µM | 0.78 µM | 6.2 µM |  |  |  | 
6 | CC1(C)[C@H](NC(=O)/C(=N\O[C@@H](COc2ccc3nc(NC4CNC4)ccc3c2)c2nn[nH]n2)c2csc(N)n2)C(=O)N1OS(=O)(=O)O [Example 45, 3-((6-((R)-2-((((Z)-1-(2-aminothiazol-4-yl)-2-(((S)-2,2-dimethyl-4-oxo-1-(sulfooxy)azetidin-3-yl)amino)-2-oxoethylidene)amino)oxy)-2-(2H-tetrazol-5-yl)ethoxy)quinolin-2-yl)amino)azetidin-1-ium 2,2,2-trifluoroacetate] | 3.9 µM | 4.3 µM | 0.53 µM | 2.1 µM |  |  |  | 
7 | CC1(C)[C@H](NC(=O)/C(=N\O[C@H](COc2ccc3nc(NC4CNC4)ccc3c2)c2nn[nH]n2)c2csc(N)n2)C(=O)N1OS(=O)(=O)O [Example 46, 3-((6-((S)-2-((((Z)-1-(2-aminothiazol-4-yl)-2-(((S)-2,2-dimethyl-4-oxo-1-(sulfooxy)azetidin-3-yl)amino)-2-oxoethylidene)amino)oxy)-2-(2H-tetrazol-5-yl)ethoxy)quinolin-2-yl)amino)azetidin-1-ium 2,2,2-trifluoroacetate] | 19 µM | 62 µM | 3.1 µM | 14 µM |  |  |  | 
8 | CC1(C)[C@H](NC(=O)/C(=N\O[C@@H](COc2ccc3nc(NC4CCNCC4)ccc3c2)c2nn[nH]n2)c2csc(N)n2)C(=O)N1OS(=O)(=O)O [Example 47, 4-((6-((R)-2-((((Z)-1-(2-aminothiazol-4-yl)-2-(((S)-2,2-dimethyl-4-oxo-1-(sulfooxy)azetidin-3-yl)amino)-2-oxoethylidene)amino)oxy)-2-(2H-tetrazol-5-yl)ethoxy)quinolin-2-yl)amino)piperidin-1-ium 2,2,2-trifluoroacetate] |  |  |  |  | 19 µM | 6.2 µM | 0.78 µM | 3.1 µM
9 | CC1(C)[C@H](NC(=O)/C(=N\O[C@H](COc2ccc3nc(NC4CCNCC4)ccc3c2)c2nn[nH]n2)c2csc(N)n2)C(=O)N1OS(=O)(=O)O [Example 48, 4-((6-((S)-2-((((Z)-1-(2-aminothiazol-4-yl)-2-(((S)-2,2-dimethyl-4-oxo-1-(sulfooxy)azetidin-3-yl)amino)-2-oxoethylidene)amino)oxy)-2-(2H-tetrazol-5-yl)ethoxy)quinolin-2-yl)amino)piperidin-1-ium 2,2,2-trifluoroacetate] |  |  |  |  | 50 µM | 100 µM | 3.1 µM | 12.5 µM
10 | CC1(C)[C@H](NC(=O)/C(=N\O[C@@H](COc2ccc3c(NCCN)nccc3c2)c2nn[nH]n2)c2csc(N)n2)C(=O)N1OS(=O)(=O)O [Example 49, 2-((6-((R)-2-((((Z)-1-(2-aminothiazol-4-yl)-2-(((S)-2,2-dimethyl-4-oxo-1-(sulfooxy)azetidin-3-yl)amino)-2-oxoethylidene)amino)oxy)-2-(2H-tetrazol-5-yl)ethoxy)isoquinolin-1-yl)amino)ethan-1-aminium 2,2,2-trifluoroacetate] |  |  |  |  | 12.5 µM | 12.5 µM | 0.78 µM | 6.2 µM
11 | CC1(C)[C@H](NC(=O)/C(=N\O[C@H](COc2ccc3c(NCCN)nccc3c2)c2nn[nH]n2)c2csc(N)n2)C(=O)N1OS(=O)(=O)O [Example 50, 2-((6-((S)-2-((((Z)-1-(2-aminothiazol-4-yl)-2-(((S)-2,2-dimethyl-4-oxo-1-(sulfooxy)azetidin-3-yl)amino)-2-oxoethylidene)amino)oxy)-2-(2H-tetrazol-5-yl)ethoxy)isoquinolin-1-yl)amino)ethan-1-aminium 2,2,2-trifluoroacetate] |  |  |  |  | 50 µM | 200 µM | 6.2 µM | 25 µM
12 | C[n+]1c2ccc(OC[C@H](O/N=C(\C(=O)N[C@@H]3C(=O)N(OS(=O)(=O)[O-])C3(C)C)c3csc(N)n3)C(=O)O)cc2cn1CCCN [Example 52, (S)-3-((Z)-2-(((S)-2-((2-(3-aminopropyl)-1-methyl-2H-indazol-1-ium-5-yl)oxy)-1-carboxyethoxy)imino)-2-(2-aminothiazol-4-yl)acetamido)-2,2-dimethyl-4-oxoazetidin-1-yl Sulfate] | 3.13 µM | 6.25 µM | 0.39 µM | 3.13 µM |  |  |  | 
13 | C[n+]1c2ccc(OC[C@H](O/N=C(\C(=O)N[C@@H]3C(=O)N(OS(=O)(=O)[O-])C3(C)C)c3csc(N)n3)C(=O)O)cc2cn1CC1(O)CNC1 [Example 53, (S)-3-((Z)-2-(2-aminothiazol-4-yl)-2-(((S)-1-carboxy-2-((2-((3-hydroxyazetidin-3-yl)methyl)-1-methyl-2H-indazol-1-ium-5-yl)oxy)ethoxy)imino)acetamido)-2,2-dimethyl-4-oxoazetidin-1-yl Sulfate] | 1.56 µM | 6.25 µM | 0.39 µM | 3.13 µM |  |  |  | 
14 | C[n+]1c2ccc(OC[C@H](O/N=C(\C(=O)N[C@@H]3C(=O)N(OS(=O)(=O)[O-])C3(C)C)c3csc(N)n3)C(=O)O)cc2cn1CC1(C(N)=O)CNC1 [Example 54, (S)-3-((Z)-2-(2-aminothiazol-4-yl)-2-(((S)-2-((2-((3-carbamoylazetidin-3-yl)methyl)-1-methyl-2H-indazol-1-ium-5-yl)oxy)-1-carboxyethoxy)imino)acetamido)-2,2-dimethyl-4-oxoazetidin-1-yl Sulfate] | 6.25 µM | 12.5 µM | 0.78 µM | 6.25 µM |  |  |  | 
15 | C[n+]1c2ccc(OC[C@H](O/N=C(\C(=O)N[C@@H]3C(=O)N(OS(=O)(=O)[O-])C3(C)C)c3csc(N)n3)C(=O)O)cc2cn1CC(CN)CN [Example 55, (S)-3-((Z)-2-(((S)-2-((2-(3-amino-2-(aminomethyl)propyl)-1-methyl-2H-indazol-1-ium-5-yl)oxy)-1-carboxyethoxy)imino)-2-(2-aminothiazol-4-yl)acetamido)-2,2-dimethyl-4-oxoazetidin-1-yl Sulfate] | 6.25 µM | 6.25 µM | 0.78 µM | 6.25 µM |  |  |  | 
